pIC50: −log10 of the molar value. By IC50 is meant the dose at which the fit gives 50% viability; where the fit passes the top or lowest dose, that dose stands as a limit. The AUC spans the tested range (256-fold, ending at the top dose) of the same fit; it is 1 without any effect and falls as sensitivity rises. For some of these results: An inferred top dose comes from the curve model; the source does not state it. For some of these results: Drugs with an entry number were screened twice under separate entries, and the two screens often disagree.
What was measured:
Test in all cases: Viability of human cancer cell lines after 72 h of drug (GDSC screen)
[1] = compound: C[C@@H](N)c1ccc(C(=O)Nc2ccnc3[nH]ccc23)cc1 [Y-39983]; details: top dose 20 µM; top dose inferred
Method: (§1)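 Human cancer cell lines in 384-well plates, medium with 10% serum, drug for 72 h over a 256-fold dose range (nine 2-fold or five 4-fold steps up to the top dose). Adherent lines were fixed and stained with the nucleic acid dye Syto60, suspension lines read with resazurin; signal relative to control wells, capped at 0 and 100%. One two-parameter sigmoid per drug and line, fitted in a mixed model over all curves with the slope shared within a line.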

[2] = compound: CC(C)CC(=O)Nc1n[nH]c2c1CN(C(=O)C1CCN(C)CC1)C2(C)C [PHA-793887]; details: top dose 10.24 µM
Method: as §1

[3] = compound: CCc1nc(N)nc(N)c1-c1ccc(Cl)cc1 [Pyrimethamine]; details: top dose 20 µM; top dose inferred
Method: as §1

[4] = compound: C/C(=C\c1csc(C)n1)[C@@H]1C[C@@H]2O[C@]2(C)CCC[C@H](C)[C@H](O)[C@@H](C)C(=O)C(C)(C)[C@@H](O)CC(=O)O1 [Epothilone B]; details: top dose 0.032 µM; top dose inferred
Method: as §1

[5] = compound: CCCS(=O)(=O)Nc1ccc(F)c(C(=O)c2c[nH]c3ncc(Cl)cc23)c1F [PLX4720]; details: top dose 10 µM
Method: as §1

[6] = compound: NC(=O)Nc1sc(-c2ccc(F)cc2)cc1C(N)=O [TPCA-1]; details: top dose 20 µM
Method: as §1

[7] = compound: CN1CCN(CCOc2cc(OC3CCOCC3)c3c(Nc4c(Cl)ccc5c4OCO5)ncnc3c2)CC1 [AZD-0530]; details: top dose 2 µM
Method: as §1

[8] = screen: GDSC drug entry 1371, top dose inferred

| Cell Line | AUC [1] | pIC50 [1] | AUC [2] | pIC50 [2] | AUC [3] | pIC50 [3] | AUC [4] | pIC50 [4] | AUC ([5]; screen: GDSC drug entry 1036) | pIC50 ([5]; screen: GDSC drug entry 1036) | AUC [5, 8] | pIC50 [5, 8] | AUC [6] | pIC50 [6] | AUC [7] | pIC50 [7] |
| --- | --- | --- | --- | --- | --- | --- | --- | --- | --- | --- | --- | --- | --- | --- | --- | --- |
| MONO-MAC-6 (acute myeloid leukaemia, suspension) | 0.839 | 4.83 | 0.496 | 6.21 | 0.834 | 4.85 | 0.811 | 7.74 | 0.912 | < 5.00 | 0.937 | < 5.00 | 0.544 | 5.78 | 0.955 | < 5.70 |
| MSTO-211H (mesothelioma, adherent) | 0.991 | < 4.70 | 0.881 | 5.05 | 0.784 |  | 0.988 | < 7.49 | 0.984 | < 5.00 | 0.99 | < 5.00 | 0.964 | < 4.70 | 0.923 | < 5.70 |
| MV-4-11 (leukaemia, suspension) | 0.687 | 5.43 | 0.147 | 7.16 | 0.851 | 4.95 | 0.478 | 8.75 | 0.932 | < 5.00 | 0.96 | < 5.00 | 0.54 | 5.80 | 0.962 | < 5.70 |
| MZ1-PC (pancreas, adherent) | 0.877 | < 4.70 | 0.408 | 6.47 | 0.897 | < 4.70 | 0.343 | 9.18 | 0.959 | < 5.00 | 0.832 | 5.06 | 0.446 | 6.07 | 0.856 | < 5.70 |
| MZ7-mel (melanoma, adherent) | 0.984 | < 4.70 | 0.987 | < 4.99 | 0.691 | 5.36 | 0.725 | 8.05 | 0.846 | 5.11 | 0.778 | 5.38 | 0.841 | 4.84 | 0.987 | < 5.70 |
| Mo-T (hairy cell leukaemia, suspension) | 0.988 | < 4.70 | 0.357 | 6.59 | 0.988 | < 4.70 | 0.976 | < 7.49 | 0.982 | < 5.00 | 0.966 | < 5.00 | 0.523 | 5.84 | 0.986 | < 5.70 |
| NALM-6 (B-cell leukaemia, suspension) | 0.487 | 5.94 | 0.16 | 7.12 | 0.841 | 4.97 | 0.524 | 8.64 | 0.976 | < 5.00 | 0.977 | < 5.00 | 0.372 | 6.23 | 0.991 | < 5.70 |
| NB5 (neuroblastoma, adherent) | 0.985 | < 4.70 | 0.953 | < 4.99 | 0.982 | < 4.70 | 0.752 | 7.97 | 0.986 | < 5.00 | 0.959 | < 5.00 | 0.852 | 4.80 | 0.871 | 5.71 |
